Measurements: PubChem BioAssay AID624296 (National Center for Advancing Translational Sciences (NCATS), 2012)
The campaign covered roughly 350,000 compounds. About 9,900 (2.8%) were called active. The shares of active, inactive and inconclusive entries below differ from those in the screen. The call rests on the fitted dose curve; in most records, active means well fitted activation curve with a large enough effect; inconclusive means small, poorly fitted or top-dose-only effect; inactive means no such curve, though single readings can be large or run the other way. Potencies of inconclusive entries are left out as doubtful fits.

Assay: A quantitative high throughput screen for small molecules that induce DNA re-replication in MCF 10a normal breast cells. Further: nearly all actives have a fitted effect of over 50% in size. On activity, positive = re-replication: % of control where 0% means no effect.
Details: MCF 10A DNA re-replication, Hoechst nuclear intensity, 48 h; activity, positive = re-replication: at 46.1 µM (top of the series)
Potency means the concentration at half of the fitted maximal effect; tags describe the fitted curve by direction and shape.

Compound	Potency	activity, positive = re-replication
COc1cc(C)c(S(=O)(=O)N2CCOCC2)cc1C	active: 3.26 µM	
Cc1ccc(NC(=O)C2CCN(C(=O)OC(C)(C)C)CC2)cc1S(=O)(=O)N1CCCCC1	inconclusive [activator, single point]	
CCOC(=O)Cn1nc(C)c2c1CCCC2=O	inconclusive [activator, single point]	
O=C(Nc1cccc(NC(=O)c2ccccc2[N+](=O)[O-])n1)c1ccccc1[N+](=O)[O-]	inconclusive [activator, single point]	
COC(=O)c1ccc(CSc2nc(C(F)F)cc(C)c2C#N)o1		inactive: 9.05%
CCOc1cc(Br)c(C=O)cc1OCC	inconclusive [activator, single point]	
Nc1ccc(S(=O)(=O)NC2(C(F)(F)F)NC(=O)N(c3ccccc3F)C2=O)cc1 (centres undefined)		inactive: 0.174%
CCNc1nc(NCC)n2c(SCC(=O)Nc3ccc(OC(F)F)cc3)nnc2n1	inconclusive [activator, partial curve, poor fit]	
Cc1cccc(C(=O)NC(=S)Nc2ccc(N3CCOCC3)cc2)c1	inconclusive [activator, single point]	
Cc1cccc(-n2c(O)c(C=NC3CCS(=O)(=O)C3)c3ccccc3c2=O)c1C (centres undefined)	inconclusive [activator, partial curve, poor fit]	
COc1ccc(C(=O)N2CCOC2CNC(=O)C(=O)NCc2ccc(Cl)cc2)cc1 (centres undefined)		inactive: 2.32%
O=C(c1ccc(-n2cccc2)cc1)N1CCN(Cc2ccccc2)CC1		inactive: 18.8%
O=C(c1cc([N+](=O)[O-])ccc1Cl)N1CCN(Cc2ccccc2)CC1	inconclusive [activator, single point]	
O=C1CSC2(CCN(CCCN3c4ccccc4Sc4ccc(Cl)cc43)CC2)N1	active: 18.8 µM	
CCCC(=O)OCCNc1cc(SCc2ccco2)c2nonc2c1[N+](=O)[O-]	inconclusive [activator, partial curve, poor fit]	
CCCCCCNC(=O)c1ncn[nH]1	inconclusive [activator, full curve, poor fit]	
COc1cc(C(CCN2CCN(c3ccccc3)CC2)c2c(OC)cc(OC)c3c(C)cc(=O)oc23)cc(OC)c1OC (centres undefined)	inconclusive [activator, full curve]	
O=C(Nc1ccc(NC(=O)c2ccc([N+](=O)[O-])o2)cc1Cl)c1ccco1	active: 9.2 µM	
FC(F)C(F)(F)Oc1cccc(-c2n[nH]c(=S)n2Cc2ccccc2)c1	inconclusive [activator, single point]	
CC(=O)N1CCN(c2ccc(NC(=O)c3ccc(Cl)c([N+](=O)[O-])c3)cc2)CC1	inconclusive [activator, single point]	
Cc1cc(NC(=O)C(C)SCC(=O)N(C)CC(=O)Nc2ccc(Br)cc2C)no1 (centres undefined)		inactive: 4.14%
COc1ccc(OC)c(/C=N/NC(=O)CCN2CCN(C(c3ccccc3)c3ccccc3)CC2)c1	active: 14.6 µM	

Compound	Potency	activity, positive = re-replication
COc1ccc(-c2cc(C(=O)OCC(=O)N(C)C3CCS(=O)(=O)C3)c3ccccc3n2)cc1OC (centres undefined)	inconclusive [activator, partial curve, poor fit]	
O=S(=O)(Cc1cc(Oc2ccccc2)nc(-c2ccccc2)n1)c1ccccc1		inactive: 6.68%
COc1cc(Cl)c(C)cc1NC(=S)NN	inconclusive [activator, single point]	
O=C(CN1C(=O)NC(c2ccccc2)(c2ccccc2)C1=O)NCc1cccs1		inactive: -1.52%
O=C(C1CCN(S(=O)(=O)c2cccc3nsnc23)CC1)N1CCCc2ccccc21	inconclusive [activator, partial curve, poor fit]	
CCOc1cc(CNc2ccc(OC)cc2)cc(Br)c1OCC(=O)NC(C)(C)C	inconclusive [activator, single point]	
C[n+]1cccc(C(=O)Nc2ccccc2)c1		inactive: -9.7%
CC(C)C(=O)Nc1nc(-c2ccc([N+](=O)[O-])cc2)cs1	inconclusive [activator, partial curve, poor fit]	
Cc1ccc(C2(C)NC(=O)N(CC(=O)N3c4ccccc4NC(=O)CC3C)C2=O)cc1 (centres undefined)		inactive: 2.02%
CCN(CC)c1nc2c(c(=O)[nH]c(=O)n2C)n1Cc1ccccc1	inconclusive [activator, single point]	
Cc1cc(C)c(OCCCCNCc2ccccc2)c(Cl)c1	active: 23.1 µM	
Cc1cccc(NC(=O)c2cc(C)nc3ccccc23)c1	inconclusive [activator, single point]	
Cn1cc(CNCc2cn(C)nc2-c2ccc(C3CCCCC3)cc2)cn1	inconclusive [activator, single point]	
CNC(=S)N/N=C/c1c(C)nn(-c2ccccc2)c1Cl	inconclusive [activator, partial curve, poor fit]	
O=C(Oc1cccc(Nc2ncnc3ccccc23)c1)c1ccccc1Cl	inconclusive [activator, partial curve, poor fit]	
COc1ccc(C(=O)Nc2cnc(NC(=O)c3cccs3)cc2C)cc1	active: 7.31 µM	
CCOc1ccc(Cl)cc1S(=O)(=O)N1CCC(C(=O)N2CCCC2)CC1	inconclusive [activator, full curve, poor fit]	
Cn1nc(-c2ccc(Cl)cc2)c2cc(C(=O)NCCCN3CCOCC3)sc21	inconclusive [activator, partial curve, poor fit]	
Cc1sc2nc(C3CC3)nc(SCC(=O)N3c4ccccc4CC3C)c2c1C (centres undefined)	active: 9.2 µM	
COC(=O)Cc1cc(=O)oc2cc(O)ccc12	active: 16.4 µM	
O=C(O)c1cccc(N/N=C/c2cn(-c3ccccc3)nc2-c2cccs2)c1	inconclusive [activator, single point]	
Cc1ccc(NC(C(=O)c2ccccc2)c2ccccc2)cc1 (centres undefined)	inconclusive [activator, partial curve, poor fit]	
